This is an account of results in a collection of fitness landscapes (doi:10.1126/science.1257360).

The labels stand for the following.
B1: PhoQ; a variant is named by its letters at X, in order, P23837 (parent)
chain: MKKLLRLFFPLSLRVRFLLATAAVVLVLSLAYGMVALIGYSVSFDKTTFRLLRGESNLFYTLAKWENNKLHVELPENIDKQSPTMTLIYDENGQLLWAQRDVPWLMKMIQPDWLKSNGFHEIEADVNDTSLLLSGDHSIQQQLQEVREDDDDAEMTHSVAVNVYPATSRMPKLTIVVVDTIPVELKSSYMVWSWFIYVLSANLLLVIPLLWVAAWWSLRPIEALAKEVRELEEHNRELLNPATTRELTSLVRNLNRLLKSERERYDKYRTTLTDLTHSLKTPLXXLQXXLRSLRSEKMSVSDAEPVMLEQISRISQQIGYYLHRASMRGGTLLSRELHPVAPLLDNLTSALNKVYQRKGVNISLDISPEISFVGEQNDFVEVMGNVLDNACKYCLEFVEISARQTDEHLYIVVEDDGPGIPLSKREVIFDRGQRVDTLRPGQGVGLAVAREITEQYEGKIVAGESMLGGARMEVIFGRQHSAPKDE

The list shows a part of the results.

This assay covers variants of B1. The assay can be described thus: enrichment ratio after two sorts for PhoP signalling (ratio (wild type AVST 3.29)); higher = more functional. The following applies: with PhoP (E. coli).
As for TWLT, the enrichment ratio was no more than 0.25.

For the variant RGQM, the enrichment ratio was no more than 0.25.

Regarding FVGW, the enrichment ratio is no more than 0.25.

Consider LHKK, for which the enrichment ratio was no more than 0.25.

Consider PVVY, for which the enrichment ratio was no more than 0.25.

Turning to PPNH, the enrichment ratio is no more than 0.25.

Turning to LYCL, the enrichment ratio is no more than 0.25.

Take TNEE: the enrichment ratio was no more than 0.25.

On to LLWA, for which the enrichment ratio was no more than 0.25.

As for ALWW, the enrichment ratio was no more than 0.25.

Take SPEF: the enrichment ratio was no more than 0.25.

As to PRPM, the enrichment ratio is no more than 0.25.

In the case of FPQI, the enrichment ratio is no more than 0.25.

On to LMGP, for which the enrichment ratio is no more than 0.25.

For the variant FRLA, the enrichment ratio is no more than 0.25.

For the variant GMPP, the enrichment ratio is no more than 0.25.

On to YENQ, for which the enrichment ratio was no more than 0.25.

Consider GQQE, for which the enrichment ratio was no more than 0.25.

As to QFDC, the enrichment ratio is no more than 0.25.

For the variant HIFW, the enrichment ratio is no more than 0.25.

Turning to EHSE, the enrichment ratio was no more than 0.25.

As for YMWH, the enrichment ratio is no more than 0.25.

TSKL: the enrichment ratio was no more than 0.25.

On to WLSS, for which the enrichment ratio is no more than 0.25.

As to RFPS, the enrichment ratio was no more than 0.25.

Take KTCC: the enrichment ratio is no more than 0.25.

Turning to YNFI, the enrichment ratio was no more than 0.25.

With FIIQ, the enrichment ratio was no more than 0.25.

Turning to YVRW, the enrichment ratio is no more than 0.25.

As for WGCL, the enrichment ratio is no more than 0.25.

For the variant WDHF, the enrichment ratio is no more than 0.25.

For the variant PPWK, the enrichment ratio was no more than 0.25.

Regarding QRVW, the enrichment ratio was no more than 0.25.

Regarding AGCW, the enrichment ratio is no more than 0.25.

As to MIVV, the enrichment ratio worked out at 1.15.

In the case of LDGL, the enrichment ratio is no more than 0.25.

As to IQST, the enrichment ratio is no more than 0.25.

For the variant SYCV, the enrichment ratio is no more than 0.25.

For the variant GVVL, the enrichment ratio came to 1.14.

For FMNV, the enrichment ratio is no more than 0.25.

As for LPRM, the enrichment ratio was no more than 0.25.

Regarding WYNY, the enrichment ratio is no more than 0.25.

Turning to MDRT, the enrichment ratio was no more than 0.25.

Turning to QMGM, the enrichment ratio was no more than 0.25.

In the case of VHCL, the enrichment ratio is no more than 0.25.

For HAWS, the enrichment ratio is no more than 0.25.

Turning to HAQL, the enrichment ratio is no more than 0.25.

For MYIT, the enrichment ratio is no more than 0.25.

For the variant ACFV, the enrichment ratio was no more than 0.25.

As to PERT, the enrichment ratio is no more than 0.25.

YDQE: the enrichment ratio was no more than 0.25.

Regarding GLRI, the enrichment ratio was no more than 0.25.

With FACG, the enrichment ratio was no more than 0.25.

For the variant ATLY, the enrichment ratio was found to be 11.1.

Turning to PPLC, the enrichment ratio was no more than 0.25.

Turning to WQGR, the enrichment ratio was no more than 0.25.

With MQKW, the enrichment ratio was no more than 0.25.

In the case of ENLH, the enrichment ratio was no more than 0.25.

As to YDID, the enrichment ratio is no more than 0.25.

In the case of RDTI, the enrichment ratio was no more than 0.25.

With IMHM, the enrichment ratio is no more than 0.25.

On to FTLV, for which the enrichment ratio is 10.2.

Turning to GCTA, the enrichment ratio is no more than 0.25.

Take VRFG: the enrichment ratio was no more than 0.25.

For the variant RISS, the enrichment ratio is no more than 0.25.

TFME: the enrichment ratio is no more than 0.25.

On to MHLY, for which the enrichment ratio was no more than 0.25.

As to HRTE, the enrichment ratio is no more than 0.25.

Consider EQWC, for which the enrichment ratio is no more than 0.25.

With THYV, the enrichment ratio was no more than 0.25.

On to FPPH, for which the enrichment ratio was no more than 0.25.

Take VMML: the enrichment ratio was no more than 0.25.

For the variant WDDD, the enrichment ratio was no more than 0.25.

Take ARVT: the enrichment ratio is no more than 0.25.

On to YVIY, for which the enrichment ratio was no more than 0.25.

With NRCW, the enrichment ratio is no more than 0.25.

For TEIQ, the enrichment ratio was found to be 8.31.

As to VWPE, the enrichment ratio is no more than 0.25.

Consider RNKF, for which the enrichment ratio was no more than 0.25.

On to DPKG, for which the enrichment ratio was no more than 0.25.

Consider YATI, for which the enrichment ratio is no more than 0.25.

For RHFK, the enrichment ratio was no more than 0.25.

Regarding VFIT, the enrichment ratio is no more than 0.25.

As to WFSI, the enrichment ratio was no more than 0.25.

Consider TAFY, for which the enrichment ratio turned out to be 2.48.

As for YQWP, the enrichment ratio is no more than 0.25.

IWCL: the enrichment ratio was no more than 0.25.

On to RYPE, for which the enrichment ratio was no more than 0.25.

Take KIKQ: the enrichment ratio is no more than 0.25.

In the case of LTQM, the enrichment ratio was no more than 0.25.

Consider FVKR, for which the enrichment ratio was no more than 0.25.

As to PNKF, the enrichment ratio was no more than 0.25.

Take RPIG: the enrichment ratio is no more than 0.25.

For FSYG, the enrichment ratio was no more than 0.25.

With YKPK, the enrichment ratio is no more than 0.25.

With DPRG, the enrichment ratio was no more than 0.25.

Consider YTPK, for which the enrichment ratio is no more than 0.25.

As for TPHM, the enrichment ratio is no more than 0.25.

For KIPT, the enrichment ratio is no more than 0.25.

As for KLPQ, the enrichment ratio is no more than 0.25.

Regarding PGSE, the enrichment ratio is no more than 0.25.

For the variant SCMM, the enrichment ratio was found to be 14.4.

On to FPWA, for which the enrichment ratio was no more than 0.25.

For MITW, the enrichment ratio was no more than 0.25.

Consider TLYM, for which the enrichment ratio was found to be 1.09.

As for SEYL, the enrichment ratio worked out at 2.14.

As for FESH, the enrichment ratio is no more than 0.25.

Regarding VSIG, the enrichment ratio was no more than 0.25.

With HVRY, the enrichment ratio is no more than 0.25.

Regarding TKLR, the enrichment ratio was no more than 0.25.

For LTPI, the enrichment ratio was no more than 0.25.

MCYW: the enrichment ratio is no more than 0.25.

Take LYTL: the enrichment ratio came out at 0.309.

Turning to VRWD, the enrichment ratio was no more than 0.25.

As for EQNF, the enrichment ratio was no more than 0.25.

As for EYLQ, the enrichment ratio was no more than 0.25.

For the variant WVRC, the enrichment ratio was no more than 0.25.

Turning to GYKF, the enrichment ratio is no more than 0.25.

Take VVPA: the enrichment ratio was no more than 0.25.

For FRPV, the enrichment ratio was no more than 0.25.

With TKLC, the enrichment ratio was determined as 19.8.

On to VPGR, for which the enrichment ratio was no more than 0.25.

Consider MFLM, for which the enrichment ratio is no more than 0.25.

Turning to VMDD, the enrichment ratio is no more than 0.25.

On to YNFS, for which the enrichment ratio is no more than 0.25.

For the variant TFEQ, the enrichment ratio was no more than 0.25.

ARLH: the enrichment ratio came to 2.5.

As to GMRF, the enrichment ratio was found to be 0.977.

Regarding LGPT, the enrichment ratio stood at 0.425.

In the case of MSKM, the enrichment ratio is no more than 0.25.

With KLRR, the enrichment ratio was no more than 0.25.

As for HAPE, the enrichment ratio was no more than 0.25.

With STNH, the enrichment ratio worked out at 8.09.

Regarding GYEH, the enrichment ratio was no more than 0.25.

As for MKCC, the enrichment ratio was no more than 0.25.

As for LRHC, the enrichment ratio was no more than 0.25.

With PWWN, the enrichment ratio is no more than 0.25.

With TPLK, the enrichment ratio was no more than 0.25.

On to SIQN, for which the enrichment ratio was found to be 6.8.

Consider WIVL, for which the enrichment ratio is no more than 0.25.

As to AAPG, the enrichment ratio is no more than 0.25.

RVGI: the enrichment ratio is no more than 0.25.

On to ALYY, for which the enrichment ratio is no more than 0.25.

For QGNT, the enrichment ratio was no more than 0.25.

For NQPT, the enrichment ratio was no more than 0.25.

For DEAV, the enrichment ratio is no more than 0.25.

Regarding HDGT, the enrichment ratio was no more than 0.25.

With RNQT, the enrichment ratio is no more than 0.25.

On to YNHQ, for which the enrichment ratio is no more than 0.25.

In the case of TSLS, the enrichment ratio was 15.9.

Consider MCYV, for which the enrichment ratio was determined as 2.99.

As for GTIQ, the enrichment ratio stood at 5.98.

Take LLPD: the enrichment ratio is no more than 0.25.
